This note sets out measurements from PubChem BioAssay AID504374 (National Center for Advancing Translational Sciences (NCATS), 2011).

Out of some 1,500 compounds screened, about 100 (6.7%) were called active. Roughly 7% stayed inconclusive and do not appear here. The call rests on the fitted dose curve; in most records, active means well fitted inhibition curve with a large enough effect; inconclusive means small, poorly fitted or top-dose-only effect, or effect the other way; inactive means flat fitted curve, though single readings scatter. The list shows a part of the results.
On the % scale 0 is the no-effect control and ±100 the full control effect.

The test has as its target Runt-related transcription factor 1 (Homo sapiens) + Core-binding factor subunit beta (Homo sapiens) (UniProt Q01196+Q13951). Kind of test: qHTS Assay for Compounds Blocking the Interaction Between CBF-beta and RUNX1 for the Treatment of Acute Myeloid Leukemia: Hit Validation. Further: nearly all actives have a fitted effect of over 60% in size. As to conditions: AlphaScreen CBFb-His/RUNX1-biotin binding; series mostly up to 59.8 µM; activity, negative = inhibition: at the top concentration. The method in brief: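 Compounds were added to a premixed CBF-beta-His/RUNX1-biotin complex (30 nM each, 20 min) for 15 min. Nickel and streptavidin AlphaScreen beads followed for 90 min at room temperature, with emission at 440 nm […].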
UniProt Q01196, sequence (Q01196 whole entry, looked up): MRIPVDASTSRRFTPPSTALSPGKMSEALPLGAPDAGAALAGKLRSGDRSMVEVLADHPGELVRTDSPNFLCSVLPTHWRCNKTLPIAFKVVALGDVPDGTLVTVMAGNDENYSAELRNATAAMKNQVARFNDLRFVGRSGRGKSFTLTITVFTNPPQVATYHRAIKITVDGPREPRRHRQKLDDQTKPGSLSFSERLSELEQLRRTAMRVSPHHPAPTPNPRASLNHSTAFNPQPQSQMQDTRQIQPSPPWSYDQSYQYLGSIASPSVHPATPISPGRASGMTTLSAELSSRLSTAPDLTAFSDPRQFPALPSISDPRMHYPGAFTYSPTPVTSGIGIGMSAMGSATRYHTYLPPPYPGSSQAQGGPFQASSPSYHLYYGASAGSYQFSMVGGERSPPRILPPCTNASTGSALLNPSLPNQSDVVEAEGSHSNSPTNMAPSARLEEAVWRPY
UniProt Q01196, sequence (Q13951 whole entry, looked up): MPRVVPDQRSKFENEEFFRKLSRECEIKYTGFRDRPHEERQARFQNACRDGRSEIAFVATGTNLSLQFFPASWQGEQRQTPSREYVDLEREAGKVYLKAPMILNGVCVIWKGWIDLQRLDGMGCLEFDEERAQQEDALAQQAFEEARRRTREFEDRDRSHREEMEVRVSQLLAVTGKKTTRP
(In general: Quantitative high-throughput screening tests each substance at several concentrations.)
On to `Cn1nccc1NS(=O)(=O)c1ccc(C(C)(C)C)cc1`, for which the “activity, negative = inhibition” value is inactive: -11%.
As to `CCOC(=O)Cc1csc(NC(=O)Nc2cccc(OC)c2)n1`, the “activity, negative = inhibition” value is inactive: 6.65%.
As for `CCOC(=O)C1CCCN(C(=O)c2csc(-c3ccc4c(c3)CCO4)n2)C1` (centres undefined), the “activity, negative = inhibition” value was inactive: -2.05%.
On to `O=C(Nc1ccc(F)cc1F)Nc1csc2ccccc12`, for which the “activity, negative = inhibition” value is inactive: -20.1%.
Take `Cc1onc(-c2ccccc2)c1C(=O)Oc1ccccc1`: the “activity, negative = inhibition” value was inactive: 14.2%.
On to `CCCc1c(NC(=O)Nc2ccc(F)cc2)cnn1-c1ccc(Cl)cc1`, for which the “activity, negative = inhibition” value was inactive: -1.45%.
`COc1ccccc1N1CC(C)(C)C(=O)N(C(=O)c2ccc(Cl)cc2)C1=S`: the “activity, negative = inhibition” value was inactive: -3.81%.
Consider `N#Cc1c(N)nc2c(c1-c1ccc(F)cc1)CCC2`, for which the “activity, negative = inhibition” value is inactive: 5.26%.
For `CC1CC(C)(C)OC(C[N+]2(C)CCCCC2)O1` (centres undefined) the value was inactive: -0.393%.
Next, `Cc1cc(C)cc(OCc2ccc(C(=O)NN)o2)c1`: inactive: -8.38%.
For the compound `Cc1nc(-c2ccc(S(=O)(=O)N3CCN(CCc4ccccc4)CC3)s2)cs1`, the “activity, negative = inhibition” value is inactive: -2.36%.
For `NCC(=O)c1cccc2ccc[n+]([O-])c12` the value was inactive: -3.82%.
For the compound `CC1(c2ccccc2)O[C@@H]2C[C@H]3[C@@H]4CCC5=CC(=O)C=C[C@]5(C)[C@@]4(F)[C@@H](O)C[C@]3(C)[C@]2(C(=O)CO)O1` (some centres undefined), the “activity, negative = inhibition” value was inactive: -1.17%.
Regarding `CCN(CC)S(=O)(=O)c1ccc(/C=C/C(=O)Nc2ccc(N3CCOCC3)cc2)cc1`, the “activity, negative = inhibition” value was inactive: 3.47%.
Take `O=C(O)c1cnc2[nH]c3ccccc3n2c1=O`: the “activity, negative = inhibition” value was inactive: -12%.
With `CN1c2ccccc2C(=O)/C(=C\Nc2ccc(F)cc2)S1(=O)=O`, the “activity, negative = inhibition” value is inactive: -5.52%.
Consider `COc1cc(/C=N/n2c(-c3ccccc3)n[nH]c2=S)cc(OC)c1O`, for which the “activity, negative = inhibition” value was inactive: -4.33%.
Next, `CCOC(=O)N1CCC(NC(=O)CCCC(=O)O)CC1`: inactive: 6.93%; `Cc1nn(Cc2ccc(C(=O)NN)cc2)c(C)c1Cl`: inactive: 1.73%.
For `COC(=O)CSc1ncnc2c(C)csc12`, the “activity, negative = inhibition” value is inactive: 1.12%.
Next, `CC(C)(C)c1csc(Sc2ncccc2[N+](=O)[O-])n1`: inactive: -14.6%; `Cc1cccc(-c2n[nH]c(=S)n2/N=C/c2cccs2)c1`: inactive: -7.44%; `O=C(NNc1c(Cl)cc(Cl)cc1Cl)c1n[nH]c(=O)c2ccccc12`: inactive: -8.23%.
On to `Cc1cccc(NC(=S)NNC(=O)c2cccc([N+](=O)[O-])c2)c1`, for which the “activity, negative = inhibition” value is inactive: -10.7%.
With `C=C(C)C(=O)Nc1cccnc1Oc1ccc(F)cc1F`, the “activity, negative = inhibition” value is inactive: -0.381%.
Regarding `CCCCC(=O)Nc1ccc2c(c1)nc1n2CCN(CCOC)C1`, the “activity, negative = inhibition” value was inactive: -4.29%.
As to `S=c1[nH]nc(Nc2cccc3ccccc23)s1`, the “activity, negative = inhibition” value was inactive: -14.2%.
Next, `Cc1ccc(C)c(N2CCN(c3ccncc3N)CC2)c1`: inactive: -11.1%; `O=C(Nc1ccc2[nH]ccc2c1)c1ccccc1`: inactive: -1.7%; `CC1=CC(=O)C(C(C)=Nc2ccccc2Cl)C(=O)O1` (centres undefined): inactive: 1.35%.
In the case of `CCOC(=O)c1cc(-c2ccc(OC)cc2)nn1-c1ccccc1C(=O)O`, the “activity, negative = inhibition” value is inactive: -6.9%.
Consider `CN(c1ccccc1)c1nc(N)c([N+](=O)[O-])c(N2CCCCC2)n1`, for which the “activity, negative = inhibition” value is inactive: -23.2%.
For the compound `O=C(O)C1CCC(=O)N1C(=O)OCc1ccccc1` (centres undefined), the “activity, negative = inhibition” value was inactive: 5.71%.
For `COc1cc(/C=C/c2nc3ccc([N+](=O)[O-])cc3s2)ccc1OCC(=O)O`, the “activity, negative = inhibition” value was inactive: -2.63%.
Regarding `COc1ccc(N/C=C2\C(=O)c3c(sc(C)c3C)N(C)S2(=O)=O)cc1`, the “activity, negative = inhibition” value is inactive: 1.6%.
For `CC(C)(C)C(=O)Nc1ccccc1C(=O)NCc1cccnc1`, the “activity, negative = inhibition” value is inactive: -1.01%.
As to `CCOC(=O)CN(C(=O)c1ccccc1[N+](=O)[O-])C(C)(C)C`, the “activity, negative = inhibition” value is inactive: 0.764%.
With `COCCCn1c(=O)/c(=C\c2ccccc2OC(C)C)s/c1=C(/C#N)C(=O)Nc1ccc(C(=O)O)cc1`, the “activity, negative = inhibition” value is inactive: -12.4%.
For `Cn1c(=O)c2c(ncn2CC(=O)N/N=C/C=C/c2ccco2)n(C)c1=O` the value was inactive: 2.56%; for `Cc1cc(-c2ccccc2C(=O)Nc2ccccc2O)on1`, inactive: -7.53%.
As for `N#Cc1ccc(C(c2ccc(C#N)cc2)n2cncn2)cc1`, the “activity, negative = inhibition” value was inactive: -16.8% [at 32.1 µM].
In the case of `COC(=O)Cc1[nH]c(Cl)nc1C(N)=O`, the “activity, negative = inhibition” value was inactive: -1.61%.
Turning to `COc1ccccc1/C=C/C=NC1C(=O)N(c2ccccc2)[N+](C)=C1C` (centres undefined), the “activity, negative = inhibition” value is inactive: 1.83%.
As to `CN1CCN(c2nc3ccccn3c(=O)c2/C=C(\C#N)S(=O)(=O)c2ccccc2)CC1`, the “activity, negative = inhibition” value is inactive: 5.7%.
As to `CC(=O)c1cnn(-c2ccc(Cl)c(Cl)c2Cl)c1C`, the “activity, negative = inhibition” value is inactive: -3.5%.
For the compound `CC(C)(C)c1cc(NCc2ccccn2)n2ncc(-c3ccccc3)c2n1`, the “activity, negative = inhibition” value is inactive: 2.5%.
In the case of `O=c1c2cc(-c3ccccc3)sc2nc2n1N=C(c1cccs1)CS2`, the “activity, negative = inhibition” value was inactive: -15.6%.
As for `CC(=O)C1=C(C)OC(N)=C(C#N)C1c1cccc2ccccc12` (centres undefined), the “activity, negative = inhibition” value is inactive: -6.29%.
Consider `CC(C)(C)c1ccc(C(=O)Cn2nc(C(=O)O)c3ccccc3c2=O)cc1`, for which the “activity, negative = inhibition” value is inactive: -8.18%.
In the case of `Cc1cccc(Nc2nc(N)nc(CCl)n2)c1`, the “activity, negative = inhibition” value is inactive: 3%.
Consider `Cc1nnsc1-c1nnc(SCC(=O)c2ccc(F)cc2)n1C1CC1`, for which the “activity, negative = inhibition” value was inactive: -1.16%.
With `O=C1Nc2ccccc2C1(O)Cc1ccccn1` (centres undefined), the “activity, negative = inhibition” value is inactive: -2.94%.
Next, `CCC1(C)N=C(N)Nc2nc3cc(C)c(C)cc3n21` (centres undefined): inactive: -2.57%; `CC(=O)Oc1ccc(C(=O)Nc2cccc(-c3nnc(-c4ccco4)o3)c2)cc1`: inactive: -1.5%.
